{"source": "paper PMC7096384", "about": "“Antiviral Activity of Chicken Cathelicidin B1 Against Influenza A Virus” (Frontiers in Microbiology, 2020)", "key": {"erythrocytes": {"system": "erythrocytes", "assay": "Hemagglutination inhibition assay (lysis of erythrocytes)", "type": "cell-based", "details": "seen in the hemagglutination inhibition assay"}, "H3N1": {"system": "H3N1", "type": "cell-based, Influenza A virus", "details": "dose response (Figure 2), HD11 and MDCK cells; two independent experiments"}, "H1N1/PR8": {"system": "H1N1/PR8", "type": "cell-based, Influenza A virus"}, "H5N1": {"system": "H5N1", "type": "cell-based, Influenza A virus"}, "[1]": {"system": "PR8-induced gene expression of cytokines in HD11 macrophages", "type": "cell-based, chicken"}, "[2]": {"system": "IAV strains (H1N1/PR8, H3N1 and H5N1)", "type": "cell-based, Influenza A virus"}, "HD11 cells": {"system": "HD11 cells", "assay": "Cell viability, WST-1 assay, HD11 cells", "type": "cell-based, chicken", "details": "10 μM peptide, 1 h with peptide then further incubation, 24 h in total; three independent experiments"}}}
{"sequence": "PIRNWWIRIWEWLNGIRK RLRQRSPFYVRGHLNVTSTPQP [CATH-B1, chicken cathelicidin, 40 amino acids, synthesized by Fmoc-chemistry]", "values": [{"measurement": "lysis of erythrocytes", "setting": "erythrocytes", "value": "to some extent induced lysis of erythrocytes"}, {"measurement": "inhibition of viral infectivity, dose-dependent, H3N1", "setting": "H3N1", "value": "almost complete inhibition"}, {"measurement": "inhibition of viral infectivity, dose-dependent, H1N1", "setting": "H1N1/PR8; dose response (Figure 2), HD11 and MDCK cells, two independent experiments", "value": "almost complete inhibition"}, {"measurement": "inhibition of viral infectivity, dose-dependent, H5N1", "setting": "H5N1", "value": 85, "unit": "%"}, {"measurement": "effect on virus-induced gene expression with pre- or post-incubation", "setting": "[1]", "value": "diminished"}, {"measurement": "relative mRNA level of IFN-α", "setting": "[1]", "value": "unaffected"}]}
{"sequence": "RIIDLLWRVRRPQKPKFVTVWVR [PMAP-23, porcine cathelicidin, used for comparison]", "values": [{"measurement": "inhibition of viral infection", "setting": "[2]", "value": "did not significantly inhibit infection"}]}
{"sequence": "RVKRFWPLVPVAINTVAAGINLYKAIRRK [CATH-3, chicken cathelicidin, 29 amino acids]", "values": [{"measurement": "cytotoxicity to HD11 cells (WST metabolic activity)", "setting": "HD11 cells", "value": "cytotoxicity was observed"}]}
{"sequence": "LLGDFFRKSKEKIGKEFK RIVQRIKDFLRNLVPRTES [LL-37, human cathelicidin, 37 amino acids, used for comparison, reference compound]", "values": [{"measurement": "antiviral activity against H1N1", "setting": "H1N1/PR8", "value": "to a lower extent H1N1"}, {"measurement": "antiviral activity against H5N1", "setting": "H5N1", "value": "not against H5N1"}]}
